# Laboratory results taken from PubChem BioAssay AID662 (National Center for Advancing Translational Sciences (NCATS), 2007).
# The whole screen tested about 71,000 compounds, of which about 1,800 (2.5%) were called active. Inconclusive means that the source gave no clear call. Such entries were picked first, then a sample of the others. The call rests on the fitted dose curve; in most records, active means well fitted activation curve with a large enough effect in the signal ratio, with a control signal flat (not every such curve was filed as active); inconclusive means small, poorly fitted or top-dose-only effect, or effect the other way, or a change in a side signal; inactive means flat fitted curve, though single readings scatter; the % refers to the signal ratio. Where the call is inconclusive, the potency comes from a doubtful curve fit.
# Experiment: Cell signaling CRE-BLA (Fsk stim); on activity change, negative = inhibition: % of control where 0% means no effect
# Details: CHO CRE-bla reporter (cAMP response element driving beta-lactamase), forskolin EC10, beta-lactamase ratio
# Method in brief: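 The 460nm/530nm emission ratio after CCF4 loading defined %Activity, from which AC50 values were obtained. CRE-bla CHO cells received compound dilution series together with an EC10 level of NKH 477 for 3 hours at 37 degrees Celsius.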
# [1] = activity change, negative = inhibition: at 38.2 µM (top of the series) unless noted
# Potency means the concentration at half of the fitted maximal effect; tags describe the fitted curve by direction and shape.
smiles,measurement,setting,value
O=C(c1ccco1)N1CCN(c2nc(C(F)(F)F)nc3c2nnn3Cc2ccccc2)CC1,Potency,[1],"inconclusive: 10 µM [rising, single point]"
O=C(CNS(=O)(=O)c1ccc(Br)s1)Nc1ccc2c(c1)OCCO2,Potency,[1],"inconclusive: 20 µM [rising, single point]"
CC1=C(C(=O)Nc2ccccc2C)C(c2ccc(C)o2)C2=C(CCCC2=O)N1 (centres undefined),Potency,[1],"inconclusive: 20 µM [falling, single point]"
COc1cc(C(=O)OCCCN2CCCN(CCCOC(=O)c3cc(OC)c(OC)c(OC)c3)CC2)cc(OC)c1OC,"activity change, negative = inhibition",at 17.1 µM (top of the series),inconclusive: 16.3%
same,"activity change, negative = inhibition",at 38.2 µM (top of the series),inconclusive: 13.9%
COCCn1c(C)cc(C(=O)CSc2nncn2-c2ccccc2)c1C,"activity change, negative = inhibition",[1],inconclusive: 6.36%
COc1ccc(C(=O)N2CCCCC2)cc1S(=O)(=O)Nc1ccccc1,"activity change, negative = inhibition",[1],inconclusive: -13.8%
Nc1cccc(NC(=O)c2cccs2)c1,Potency,[1],inactive
COc1ccc(-n2c(=O)c(-c3cc(F)cc(F)c3)nc3cnc(N(C)C)nc32)cc1,Potency,[1],"inconclusive: 2 µM [rising, partial curve]"
COc1ccc(OC)c2[nH]c(=O)c(CCNC(C)=O)cc12,Potency,[1],"inconclusive: 3.98 µM [falling, full curve, poor fit]"
COc1ccc(CN2C(=O)c3cccnc3C2Nc2cc(Cl)c(OC)cc2OC)cc1 (centres undefined),"activity change, negative = inhibition",[1],inconclusive: 3.08%
Cc1ccc(-c2ccc(=O)n(CCC(=O)NCc3ccccn3)n2)cc1,Potency,[1],inactive
COC(=O)c1ccc(CSc2ccc3nnc(-c4cccc(F)c4)n3n2)o1,Potency,[1],active: 7.94 µM
O=C(CSc1nnc(-c2ccccc2)o1)c1nnc(-c2ccccc2)o1,Potency,[1],"inconclusive: 3.98 µM [falling, single point]"
O=C(O)c1ccc(SSc2ccc(C(=O)O)cn2)nc1,Potency,[1],"inconclusive: 5.01 µM [rising, single point]"
O=C1c2oc3ccccc3c(=O)c2C(c2ccc(Br)cc2)N1c1ncccn1 (centres undefined),"activity change, negative = inhibition",[1],inconclusive: -7.3%
COc1cc2c(C(=O)NCCCN3CC(C)CC(C)C3)cn(CC(C)C)c(=O)c2cc1OC (centres undefined),"activity change, negative = inhibition",[1],inconclusive: 2.44%
O=C1Nc2ccccc2C12Nc1ccccc1S2 (centres undefined),"activity change, negative = inhibition",[1],inconclusive: -5.55%
Cc1cc(C)c2c(N)c(S(=O)(=O)c3ccccc3)sc2n1,Potency,[1],"inconclusive: 12.6 µM [rising, partial curve]"
c1ccc(-c2cc(CSc3nc4ccccc4[nH]3)on2)cc1,Potency,[1],"inconclusive: 6.31 µM [rising, partial curve]"
CN(C)CCCN=C(N)N,"activity change, negative = inhibition",[1],inactive: -4.18% [at 7.6 µM]
CS(=O)(=O)N1CCC2(CC1)CN(c1ccc(-c3ccccc3)cc1)C2,Potency,[1],inactive
CCCn1c(C)nc2c(N3CCCN(Cc4ccccc4)CC3)nc(C)nc21,Potency,[1],"inconclusive: 12.6 µM [rising, partial curve]"
CCC(C)(C)N1CC(=O)N(Cc2ccccc2)C(c2ccc(OC)cc2)C1=O (centres undefined),Potency,[1],inactive
Cc1sc2ncnc(SC(C)C#N)c2c1C (centres undefined),Potency,[1],active: 5.01 µM
COc1ccc(OCC(O)Cn2c(Br)nc3c2c(=O)[nH]c(=O)n3C)cc1 (centres undefined),Potency,[1],"inconclusive: 10 µM [rising, single point]"
CC1=C(C(=O)OCc2ccc3c(c2)OCO3)C(c2ccccc2)NC(=O)N1 (centres undefined),"activity change, negative = inhibition",[1],inconclusive: -17%
CCOC(=O)N1CCN(C(=O)Cn2ncc3ccccc32)CC1,Potency,[1],inactive
COc1cccc(Cn2c(=O)c(-c3cccs3)nc3cnc(N4CCN(C)CC4)nc32)c1,Potency,[1],"inconclusive: 0.316 µM [rising, full curve]"
CCCn1c(SCC(=O)NCc2cccs2)nc2c1c(=O)n(C)c(=O)n2C,"activity change, negative = inhibition",[1],inconclusive: 17.2%
COC(=O)[C@@H]1C[C@H]1[C@@H](NC(=O)c1ccc(Br)cc1)c1ccccc1,Potency,[1],inactive
CNS(=O)(=O)c1ccc(NC(=O)C(CCSC)NC(N)=O)cc1 (centres undefined),"activity change, negative = inhibition",[1],inconclusive: -29%
COC(=O)c1c(NC(=O)CSc2nnnn2-c2ccccc2)sc2c1CCCC2,Potency,[1],"inconclusive: 5.01 µM [rising, full curve]"
CCC(C)Sc1nc2c(cnn2-c2ccc(C)c(C)c2)c(=O)[nH]1 (centres undefined),Potency,[1],active: 2.51 µM
COc1cc2c(C#N)c(N3CCCCC3)nc(N)c2c(N)n1,Potency,[1],"inconclusive: 10 µM [rising, partial curve]"
CC(C)(C)NC(=O)NC(=O)COC(=O)c1ccco1,Potency,[1],"inconclusive: 0.1 µM [falling, single point]"
O=C(CSc1nnc(Cn2c(=O)sc3ccccc32)n1CCc1ccccc1)N1CCOCC1,"activity change, negative = inhibition",[1],inconclusive: -15.8%
O=C(c1cccc(F)c1)N1CCC2(CCN(Cc3nccs3)CC2)CC1,Potency,[1],inactive
Cc1cccc(Nc2ncnc3nc[nH]c23)c1,Potency,[1],"inconclusive: 2 µM [rising, full curve]"
O=C(C1CC1)N1CCc2cc(S(=O)(=O)NCC3COc4ccccc4O3)ccc21 (centres undefined),Potency,[1],"inconclusive: 0.126 µM [falling, full curve, poor fit]"
O=C1C(C=NCCCn2ccnc2)=C(O)c2ccccc21,Potency,[1],"inconclusive: 1.58 µM [falling, partial curve]"
O=C(C1CCN(S(=O)(=O)c2cccc3nsnc23)CC1)N1CCc2ccccc21,Potency,[1],inactive
CCOc1ccc(C(=O)CCNC(Cc2cnc[nH]2)C(=O)O)cc1 (centres undefined),"activity change, negative = inhibition",[1],inconclusive: 1.79% [at 7.6 µM]
COc1ccc(OC)c(NS(=O)(=O)c2ccc3c(c2)CCC(=O)N3)c1,"activity change, negative = inhibition",[1],inconclusive: 7.99%
CCOC(=O)c1ccccc1NC(=O)Cn1cnc2c(cnn2-c2ccc(OC)cc2)c1=O,"activity change, negative = inhibition",[1],inconclusive: -24%
CC1CCN(C(=O)CSc2nnc(-c3cccnc3)n2C2CCCCC2)CC1,Potency,[1],inactive
CCOC(=O)c1[nH]c(COC(=O)C2CC(=O)N(Cc3ccccc3)C2)c(C(=O)OCC)c1C (centres undefined),Potency,[1],"inconclusive: 10 µM [rising, partial curve]"
CCCn1nc(C(=O)Nc2cccc(C(=O)OC)c2)c2ccccc2c1=O,Potency,[1],"inconclusive: 25.1 µM [rising, single point]"
COC(=O)c1ccc2c(=O)n(CCCCCC(=O)N3CCN(c4ccccc4)CC3)c(=O)[nH]c2c1,"activity change, negative = inhibition",[1],inconclusive: -9.11%
O=C(CC1(O)C(=O)Nc2cc(Cl)cc(Cl)c21)c1ccccc1O (centres undefined),"activity change, negative = inhibition",[1],inconclusive: -3.13%
CCOC(=O)N1CCN(C(=O)Nc2ccc3nc(C)sc3c2)CC1,Potency,[1],inactive
COC(=O)Nc1nnc(CC(=O)Nc2ccccc2C)s1,"activity change, negative = inhibition",[1],inconclusive: -1.71%
c1coc(-c2nc3ccccc3nc2-c2ccco2)c1,Potency,[1],active: 12.6 µM
CCOc1ccc(C2/C(=C(/O)c3ccc(Cl)cc3)C(=O)C(=O)N2CCCN(C)C)cc1OC (centres undefined),Potency,[1],"inconclusive: 12.6 µM [rising, partial curve]"
CC(C)Sc1nc(O)c(Cc2ccccc2)c(=O)[nH]1,"activity change, negative = inhibition",[1],inconclusive: 0.227% [at 7.6 µM]
Cc1cc2c3nonc3ccc2n1C,"activity change, negative = inhibition",[1],inconclusive: 28.2%
CCCCNC(=O)C(C#N)c1nc2ccccc2nc1N1CCCC1 (centres undefined),Potency,[1],"inconclusive: 12.6 µM [falling, single point]"
COc1cccc(C(=O)OCn2nnc3ccccc3c2=O)c1,Potency,[1],"inconclusive: 12.6 µM [rising, single point]"
COc1cc2nc(COc3ccc(C#N)cc3)n(CC#N)c(=O)c2cc1OC,Potency,[1],"inconclusive: 6.31 µM [rising, partial curve]"
COc1ccccc1C(=O)Nc1cccc(NC(C)=O)c1,"activity change, negative = inhibition",[1],inconclusive: 21.8% [at 7.6 µM]
COc1ccc(CN(CCCN2CCOCC2)C(=O)Nc2cccc(Cl)c2)cc1OC,Potency,[1],"inconclusive: 25.1 µM [falling, single point]"
COc1ccc(C2=NOC(C(=O)N3CCCc4ccccc43)C2)cc1 (centres undefined),Potency,[1],inactive
CC(Oc1ccccc1)C(=O)Nc1ccc(C(N)=O)cc1 (centres undefined),"activity change, negative = inhibition",[1],inconclusive: -18%
N=C(N)c1ccc(N=Nc2c(O)ccc3c2[nH]c2ccccc23)cc1,"activity change, negative = inhibition",[1],inactive: -4.55% [at 7.6 µM]
Clc1ccc(Cl)c2sc(N3CCOCC3)nc12,"activity change, negative = inhibition",[1],inconclusive: 29.9%
COC(=O)[C@@]1(Cc2ccc(F)cc2)[C@H]2c3cc(C(=O)N4CCCC4)n(CCF)c3C[C@H]2CN1C(=O)c1ccccc1,Potency,[1],inactive
CCOCC(=O)Nc1c(C(=O)OCC)oc2ccccc12,Potency,[1],active: 10 µM
CCOC(=O)c1cc(-c2nnc(-c3cc(OC)c(OC)c(OC)c3)o2)c(C)nc1C,Potency,[1],inactive
COc1ccccc1-n1cnnc1SCC(=O)c1ccc[nH]1,Potency,[1],"inconclusive: 31.6 µM [falling, single point]"
CCn1c(=O)n(CC)c2cc(S(=O)(=O)NCCOc3ccccc3)c(C)cc21,Potency,[1],"inconclusive: 12.6 µM [rising, partial curve]"
O=C(Cc1ccc(-n2cnnn2)cc1)NC12CC3CC(CC(C3)C1)C2,"activity change, negative = inhibition",[1],inconclusive: 9.7%
Cc1csc2ncc(C(=O)NCc3ccc4c(c3)OCO4)c(=O)n12,"activity change, negative = inhibition",[1],inconclusive: 24.9%
Oc1ccc(-c2nc3ncccn3c2Nc2ccc3c(c2)OCO3)cc1,Potency,[1],"inconclusive: 1.26 µM [rising, partial curve, poor fit]"
CCn1c2ccccc2c2cc(NC(=O)COC(=O)Cc3cn4ccsc4n3)ccc21,Potency,[1],"inconclusive: 20 µM [rising, single point]"
CC(C)OC(=O)CN1C(=O)c2ccccc2C1=O,Potency,[1],inactive
Nc1ccc(CCS(N)(=O)=O)cc1,"activity change, negative = inhibition",[1],inconclusive: 2.13%
Clc1ccc2c(N3CCCC3)ccnc2c1,"activity change, negative = inhibition",[1],inconclusive: -4.88%
Cc1nc(NCCO)c2nc(-c3ccccc3)n(CCN(C)C)c2n1,Potency,[1],"inconclusive: 15.8 µM [rising, partial curve]"
CC(Oc1ccc(Cl)cc1Cl)C(=O)Nc1ccc(N2CCN(C)CC2)cc1 (centres undefined),Potency,[1],inactive
